Source: the supplement of paper PMC4967469

What was measured:
FK866 = compound: O=C(/C=C/c1cccnc1)NCCCCC1CCN(C(=O)c2ccccc2)CC1 [FK866]; assay: Viability of human cancer cell lines after 72 h of drug (GDSC screen); conditions: top dose 1 µM; top dose inferred
Experimental: (§1)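 Human cancer cell lines in 384-well plates, medium with 10% serum, drug for 72 h over a 256-fold dose range (nine 2-fold or five 4-fold steps up to the top dose). Adherent lines were fixed and stained with the nucleic acid dye Syto60, suspension lines read with resazurin; signal relative to control wells, capped at 0 and 100%. One two-parameter sigmoid per drug and line, fitted in a mixed model over all curves with the slope shared within a line.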

FR-180204 = compound: Nc1[nH]nc2nnc(-c3c(-c4ccccc4)nn4ccccc34)cc12 [FR-180204]; assay: as above; conditions: top dose 20 µM; top dose inferred
Experimental: as §1

Row | Cell Line | AUC (FK866) | IC50 (FK866) [nM] | AUC (FR-180204) | IC50 (FR-180204) [nM]
1 | CAL-78 (chondrosarcoma, adherent) | 0.985 | > 1000 | 0.979 | > 20000
2 | CAL-85-1 (breast, adherent) | 0.819 | 785 | 0.919 | > 20000
3 | CAL-120 (breast, adherent) | 0.279 | 12.1 | 0.974 | > 20000
4 | CAMA-1 (breast, adherent) | 0.883 | > 1000 | 0.983 | > 20000
5 | CAS-1 (glioma, adherent) | 0.86 | > 1000 | 0.981 | > 20000
6 | CCF-STTG1 (glioma, adherent) | 0.577 | 102 | 0.987 | > 20000
7 | CCK-81 (large intestine, adherent) | 0.944 | > 1000 | 0.948 | > 20000
8 | CCRF-CEM (lymphoblastic leukaemia, suspension) | 0.052 | < 3.91 | 0.957 | > 20000
9 | CESS (acute myeloid leukaemia, suspension) | 0.045 | < 3.91 | 0.907 | > 20000
10 | CFPAC-1 (pancreas, adherent) | 0.671 | 202 | 0.978 | > 20000
11 | CGTH-W-1 (thyroid, adherent) | 0.077 | < 3.91 | 0.982 | > 20000
12 | CHL-1 (melanoma, adherent) | 0.052 | < 3.91 | 0.904 | > 20000
13 | CHP-126 (neuroblastoma, suspension) | 0.122 | < 3.91 | 0.926 | > 20000
14 | CHP-212 (neuroblastoma, adherent) | 0.08 | < 3.91 | 0.988 | > 20000
15 | CHSA0011 (chondrosarcoma, adherent) | 0.913 | > 1000 | 0.961 | > 20000
16 | CHSA0108 (chondrosarcoma, adherent) | 0.343 | 21.3 | 0.984 | > 20000
17 | CHSA8926 (chondrosarcoma, adherent) | 0.864 | > 1000 | 0.98 | > 20000
18 | CL-11 (large intestine, adherent) | 0.827 | 716 | 0.987 | > 20000
19 | CMK (acute myeloid leukaemia, suspension) | 0.033 | < 3.91 | 0.866 | 13400
20 | COLO-205 (large intestine, suspension) | 0.138 | 4.65 | 0.958 | > 20000
21 | COLO-320-HSR (large intestine, suspension) | 0.026 | < 3.91 | 0.985 | > 20000
22 | COLO-668 (small cell lung carcinoma, adherent) | 0.981 | > 1000 | 0.958 | > 20000
23 | COLO-678 (large intestine, semi-adherent) | 0.935 | > 1000 | 0.981 | > 20000
24 | COLO-679 (melanoma, adherent) | 0.792 | 516 | 0.977 | > 20000

Row | Cell Line | AUC (FK866) | IC50 (FK866) [nM] | AUC (FR-180204) | IC50 (FR-180204) [nM]
25 | COLO-680N (oesophagus, adherent) | 0.916 | > 1000 | 0.985 | > 20000
26 | COLO-684 (endometrium, suspension) | 0.249 | 10.7 | 0.984 | > 20000
27 | COLO-783 (melanoma, adherent) | 0.953 | > 1000 | 0.991 | > 20000
28 | COLO-792 (melanoma, adherent) | 0.489 | 58.5 | 0.984 | > 20000
29 | COLO-800 (melanoma, adherent) | 0.035 | < 3.91 | 0.985 | > 20000
30 | COLO-824 (breast, adherent) | 0.456 | 47.3 | 0.987 | > 20000
31 | COLO-829 (melanoma, adherent) | 0.876 | > 1000 | 0.961 | > 20000
32 | COR-L23 (large cell lung carcinoma, adherent) | 0.181 | 7.12 | 0.978 | > 20000
33 | COR-L88 (small cell lung carcinoma, adherent) | 0.241 | 9.48 | 0.98 | > 20000
34 | COR-L95 (small cell lung carcinoma, adherent) | 0.974 | > 1000 | 0.98 | > 20000
35 | COR-L105 (lung adenocarcinoma, adherent) | 0.825 | 783 | 0.929 | > 20000
36 | COR-L279 (small cell lung carcinoma, suspension) | 0.131 | 5.18 | 0.979 | > 20000
37 | COR-L321 (lung, suspension) | 0.148 | 5.05 | 0.97 | > 20000
38 | CP50-MEL-B (melanoma, adherent) | 0.149 | 5.2 | 0.942 | > 20000
39 | CP66-MEL (melanoma, adherent) | 0.835 | 787 | 0.976 | > 20000
40 | CPC-N (small cell lung carcinoma, suspension) | 0.04 | < 3.91 | 0.983 | > 20000
41 | CS1 (bone, adherent) | 0.174 | 5.58 | 0.981 | > 20000
42 | CTB-1 (B-cell lymphoma, suspension) | 0.198 | 5.43 | 0.979 | > 20000
43 | CW-2 (large intestine, adherent) | 0.727 | 292 | 0.974 | > 20000
44 | Ca9-22 (head and neck, adherent) | 0.187 | 7.94 | 0.948 | > 20000
45 | Ca-Ski (cervix, adherent) | 0.612 | 132 | 0.962 | > 20000
46 | CaR-1 (large intestine, adherent) | 0.461 | 46.5 | 0.976 | > 20000
47 | Calu-6 (lung adenocarcinoma, adherent) | 0.613 | 134 | 0.979 | > 20000
48 | Caov-4 (ovary, adherent) | 0.892 | > 1000 | 0.98 | > 20000

Row | Cell Line | AUC (FK866) | IC50 (FK866) [nM] | AUC (FR-180204) | IC50 (FR-180204) [nM]
49 | Capan-2 (pancreas, adherent) | 0.769 | 458 | 0.949 | > 20000
50 | ChaGo-K-1 (non-small cell lung carcinoma, adherent) | 0.372 | 26.2 | 0.978 | > 20000
51 | D-247MG (glioma, adherent) | 0.865 | > 1000 | 0.91 | > 20000
52 | D-263MG (glioma, adherent) | 0.043 | < 3.91 | 0.978 | > 20000
53 | D-283MED (medulloblastoma, adherent) | 0.029 | < 3.91 | 0.991 | > 20000
54 | D-336MG (glioma, adherent) | 0.912 | > 1000 | 0.969 | > 20000
55 | D-392MG (glioma, adherent) | 0.971 | > 1000 | 0.976 | > 20000
56 | D-423MG (glioma, adherent) | 0.258 | 10.6 | 0.933 | > 20000
57 | D-502MG (glioma, adherent) | 0.887 | > 1000 | 0.949 | > 20000
58 | D-542MG (glioma, adherent) | 0.743 | 368 | 0.984 | > 20000
59 | D-566MG (glioma, adherent) | 0.262 | 13.2 | 0.964 | > 20000
60 | DAN-G (pancreas, adherent) | 0.686 | 191 | 0.989 | > 20000
61 | DB (B-cell lymphoma, suspension) | 0.115 | < 3.91 | 0.967 | > 20000
62 | DBTRG-05MG (glioma, adherent) | 0.954 | > 1000 | 0.958 | > 20000
63 | DEL (lymphoid neoplasm, suspension) | 0.467 | 51.7 | 0.99 | > 20000
64 | DG-75 (Burkitt lymphoma, suspension) | 0.515 | 68.7 | 0.985 | > 20000
65 | DK-MG (glioma, adherent) | 0.891 | > 1000 | 0.967 | > 20000
66 | DMS-53 (small cell lung carcinoma, adherent) | 0.984 | > 1000 | 0.986 | > 20000
67 | DMS-79 (small cell lung carcinoma, suspension) | 0.416 | 35.3 | 0.986 | > 20000
68 | DMS-114 (small cell lung carcinoma, adherent) | 0.145 | 3.93 | 0.985 | > 20000
69 | DMS-273 (small cell lung carcinoma, adherent) | 0.126 | < 3.91 | 0.967 | > 20000
70 | DND-41 (T-cell leukaemia, suspension) | 0.023 | < 3.91 | 0.915 | > 20000
71 | DOK (head and neck, adherent) | 0.704 | 318 | 0.976 | > 20000
72 | DOV13 (ovary, adherent) | 0.242 | 9.86 | 0.938 | > 20000

Row | Cell Line | AUC (FK866) | IC50 (FK866) [nM] | AUC (FR-180204) | IC50 (FR-180204) [nM]
73 | DSH1 (bladder, adherent) | 0.897 | > 1000 | 0.949 | > 20000
74 | DU-145 (prostate, adherent) | 0.374 | 26.9 | 0.976 | > 20000
75 | DU-4475 (breast, suspension) | 0.02 | < 3.91 | 0.961 | > 20000
76 | Daoy (medulloblastoma, adherent) | 0.562 | 90.7 | 0.984 | > 20000
77 | Daudi (Burkitt lymphoma, suspension) | 0.186 | 8.51 | 0.988 | > 20000
78 | Detroit562 (head and neck, adherent) | 0.68 | 194 | 0.986 | > 20000
79 | DoTc2-4510 (cervix, adherent) | 0.846 | 673 | 0.984 | > 20000
80 | EB2 (Burkitt lymphoma, suspension) | 0.19 | 8.4 | 0.955 | > 20000
81 | EB-3 (Burkitt lymphoma, suspension) | 0.045 | < 3.91 | 0.948 | > 20000
82 | EBC-1 (lung squamous cell carcinoma, adherent) | 0.691 | 232 | 0.968 | > 20000
83 | EC-GI-10 (oesophagus, adherent) | 0.085 | < 3.91 | 0.981 | > 20000
84 | ECC10 (stomach, suspension) | 0.032 | < 3.91 | 0.98 | > 20000
85 | EFM-19 (breast, adherent) | 0.828 | > 1000 | 0.972 | > 20000
86 | EFM-192A (breast, adherent) | 0.889 | > 1000 | 0.965 | > 20000
87 | EFO-21 (ovary, adherent) | 0.782 | 629 | 0.962 | > 20000
88 | EFO-27 (ovary, adherent) | 0.55 | 88.8 | 0.929 | > 20000
89 | EGI-1 (biliary tract, adherent) | 0.668 | 213 | 0.969 | > 20000
90 | EJM (lymphoid neoplasm, semi-adherent) | 0.261 | 14.8 | 0.972 | > 20000
91 | EKVX (lung adenocarcinoma, adherent) | 0.962 | > 1000 | 0.949 | > 20000
92 | EM-2 (chronic myeloid leukaemia, suspension) | 0.059 | < 3.91 | 0.848 | 18000
93 | EMC-BAC-1 (lung adenocarcinoma, adherent) | 0.252 | 10.8 | 0.894 | > 20000
94 | EMC-BAC-2 (lung adenocarcinoma, adherent) | 0.138 | < 3.91 | 0.97 | > 20000
95 | EN (endometrium, adherent) | 0.508 | 65.9 | 0.983 | > 20000

The IC50 comes from the fitted curve, where viability falls to half of the control; a limit (>, <) means that the fit lies beyond the doses tested. AUC sums up the same curve from the lowest dose to the 256-fold higher top dose; it is 1 without any effect and falls as sensitivity rises. An inferred top dose is not printed in the source and was worked back from the curve model.
